Measurements as given in PubChem BioAssay AID720709 (National Center for Advancing Translational Sciences (NCATS), 2013).
In all, about 360,000 compounds went through this assay and about 520 (0.14%) were called active. The shares of active, inactive and inconclusive entries below differ from those in the screen. The call rests on the fitted dose curve; in most records, active means well fitted inhibition curve with a large enough effect; inconclusive means small, poorly fitted or top-dose-only effect; inactive means no such curve, though single readings can be large or run the other way. Potencies beside an inconclusive call are fits to weak or partial responses and may not hold up.

The compounds below were run against Rap guanine nucleotide exchange factor 3 (Homo sapiens) (UniProt O95398) (assay: qHTS for Antagonist of cAMP-regulated guanine nucleotide exchange factor 3 (EPAC1): primary screen). Settings: EPAC1 GEF assay, Rap1b-BODIPY-GDP exchange fluorescence; activity change, negative = inhibition: at 115 µM (top of the series).
UniProt O95398, sequence (O95398 whole entry, looked up): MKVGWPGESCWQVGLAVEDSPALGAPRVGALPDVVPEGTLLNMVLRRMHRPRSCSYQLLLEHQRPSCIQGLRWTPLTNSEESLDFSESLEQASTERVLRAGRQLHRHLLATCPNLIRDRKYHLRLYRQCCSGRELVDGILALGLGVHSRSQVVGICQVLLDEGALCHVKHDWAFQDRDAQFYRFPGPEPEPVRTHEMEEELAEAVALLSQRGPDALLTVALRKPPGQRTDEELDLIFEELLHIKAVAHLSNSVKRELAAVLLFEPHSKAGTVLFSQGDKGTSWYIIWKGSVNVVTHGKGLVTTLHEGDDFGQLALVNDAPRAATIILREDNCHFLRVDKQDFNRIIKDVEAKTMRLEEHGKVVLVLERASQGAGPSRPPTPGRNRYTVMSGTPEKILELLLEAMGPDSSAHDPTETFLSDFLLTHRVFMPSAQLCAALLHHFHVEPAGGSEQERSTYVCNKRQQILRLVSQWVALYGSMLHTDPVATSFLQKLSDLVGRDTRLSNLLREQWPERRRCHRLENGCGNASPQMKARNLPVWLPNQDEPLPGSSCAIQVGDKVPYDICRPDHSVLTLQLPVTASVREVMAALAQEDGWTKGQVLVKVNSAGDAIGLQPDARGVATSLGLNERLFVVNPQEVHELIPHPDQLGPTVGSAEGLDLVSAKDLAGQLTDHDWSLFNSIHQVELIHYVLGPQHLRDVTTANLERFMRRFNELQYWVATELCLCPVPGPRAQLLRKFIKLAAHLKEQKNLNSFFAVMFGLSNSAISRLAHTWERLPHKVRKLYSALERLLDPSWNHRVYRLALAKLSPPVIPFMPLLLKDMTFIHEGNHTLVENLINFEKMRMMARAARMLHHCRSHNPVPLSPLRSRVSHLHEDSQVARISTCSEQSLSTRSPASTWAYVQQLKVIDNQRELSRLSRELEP
Further: nearly all actives have a fitted effect of over 50% in size.
Potency means the concentration at half of the fitted maximal effect; tags describe the fitted curve by direction and shape.
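Wherever activity change, negative = inhibition is given: plate controls were vehicle for no effect and positive control for full effect.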

Potency, active:
O=C1C=CC(=O)c2c(O)c(N3CCN(CCO)CC3)c(Cl)c(O)c21 14.1 µM

Potency, inconclusive:
CCCCN(CCCC)S(=O)(=O)c1ccc(NC(=O)c2cccs2)cc1 20 µM [inhibitor, full curve, poor fit]
C[C@@H]1CN([C@H](C)CO)C(=O)c2cccc(NC(=O)NC3CCCCC3)c2O[C@@H]1CN(C)C(=O)Nc1ccc(C(F)(F)F)cc1 3.16 µM [inhibitor, full curve, poor fit]
O=C(O)c1cccc(S(=O)(=O)N2CCCC(c3nc4c(nnn4Cc4ccc(F)cc4)c(=O)[nH]3)C2)c1 (stereo not given) 100 µM [inhibitor, single point]
O=C(Cc1cccc2ccccc12)Nc1cc(Cl)ccc1C(=O)O 89.1 µM [inhibitor, partial curve]
Cn1c(=O)c2c(-c3ccccc3)n(-c3ccccc3N)cc2n(C)c1=O 100 µM [inhibitor, single point]
COc1ccc2nc(N3C(=O)CC(Cc4ccc(C)cc4)C3=O)sc2c1 (stereo not given) 56.2 µM [inhibitor, partial curve]
C=CCNC(=O)CSc1nnc(-c2ccccn2)n1Cc1ccccc1 7.08 µM [inhibitor, full curve, poor fit]
CCOc1ccc(N(CC(=O)Nc2ccc(C)c(C)c2)S(=O)(=O)c2c(C)[nH]c(=O)[nH]c2=O)cc1 79.4 µM [inhibitor, single point]
COc1ccc2oc(C(=O)OCC(=O)N(C)CC(=O)Nc3ccc(C)cc3)c(C)c2c1 89.1 µM [inhibitor, single point]
COCc1c(C(=O)Nc2cccc(S(=O)(=O)N3CCCCC3)c2)oc2ccccc12 14.1 µM [inhibitor, full curve, poor fit]
Cc1ccc(NC(=O)CNC(=O)c2cccs2)cc1S(=O)(=O)Nc1ccc(Cl)cc1 10 µM [inhibitor, full curve]
COC(=O)c1ccc(COc2ccc(/C=C/C(=O)c3ccc(OC)c(CSCC(=O)O)c3)cc2OC)cc1 35.5 µM [inhibitor, partial curve]
CC(OCC(O)CN(C)CCOc1ccccc1)c1ccc(Cl)cc1 (stereo not given) 39.8 µM [inhibitor, partial curve]
CCCCCC(=O)NC(=S)Nc1ccc(N2CCOCC2)cc1 39.8 µM [inhibitor, partial curve]
Cc1ccc2nc(/C(C#N)=C/c3ccc(O)c(O)c3)[nH]c2c1 7.94 µM [inhibitor, full curve]
Cc1cccc(OCc2n(CC(=O)OC3CC(C)CCC3C(C)C)c3ccccc3[n+]2C)c1 (stereo not given) 39.8 µM [inhibitor, single point]
COc1ccc(NC(=O)c2cc([N+](=O)[O-])ccc2N2CCCC2)cc1 100 µM [inhibitor, single point]
CCOC(=O)Cc1cc(=O)n(-c2nc3ccccc3s2)[nH]1 70.8 µM [inhibitor, single point]
Cc1ccc(NC(=O)CCNS(=O)(=O)c2ccc(Br)s2)cc1 100 µM [inhibitor, single point]
Cc1ccc(Cc2c(-c3ccco3)nc3ccc(Cl)cn23)cc1 89.1 µM [inhibitor, partial curve]
COc1ccc([C@H]2C[C@@H](n3cc(-c4ccc(F)cc4)nn3)[C@H](O)CN2Cc2cccs2)cc1 100 µM [inhibitor, single point]
Cc1ccc(S(=O)(=O)N(C)CC(=O)N/N=C/c2ccc(C)o2)cc1 3.98 µM [inhibitor, full curve, poor fit]
O=C(CSc1ncnc2nc[nH]c12)Nc1nnc(SCc2ccc(Cl)c(Cl)c2)s1 79.4 µM [inhibitor, partial curve]
CCOc1ccc(NC(=O)CSc2nnc(CNC(=O)c3cccs3)o2)cc1 50.1 µM [inhibitor, partial curve]
CCOC(=O)c1ccc(NC(=O)C2(c3ccc(OC)cc3)CCCC2)cc1 79.4 µM [inhibitor, partial curve]
Cc1cc(C)c(S(=O)(=O)Nc2cc(SCC(=O)O)c(O)c3ccccc23)cc1C 100 µM [inhibitor, single point]
COC(=O)C1=C(C)N(CC(C)C)C(=O)/C1=C\c1cccs1 56.2 µM [inhibitor, partial curve]
CCOC(=O)c1sc2nc(N3CCCC3)c3c(c2c1N)CC(C)(C)OC3 25.1 µM [inhibitor, full curve, poor fit]
CCCOc1ccc(Br)cc1/C=N/O 5.01 µM [inhibitor, partial curve, poor fit]
Cc1c(C)n(C)c2ccc(C(=O)NCCCN3CCN(c4ccc(F)cc4)CC3)cc12 31.6 µM [inhibitor, full curve, poor fit]
Cc1[nH]n(-c2ccccc2)c(=O)c1CCOC(=O)c1ccc(C(F)(F)F)cc1 56.2 µM [inhibitor, partial curve, poor fit]
NS(=O)(=O)c1ccc(NC(=O)COC(=O)c2cc(Cl)ccc2[N+](=O)[O-])cc1 56.2 µM [inhibitor, partial curve]
O=C(O)c1ccn2c(C(=O)c3ccc(Cl)cc3)c(-c3ccccc3)cc2c1 89.1 µM [inhibitor, single point]
CCCCCC(=O)NC(=S)Nc1ccc(Cl)cn1 25.1 µM [inhibitor, partial curve]
Cc1cc2nc(-c3ccc(Cl)cc3)c(CC(C)(C)C)n2c(C)c1Br 79.4 µM [inhibitor, partial curve]
Cn1c(N)c(C(=O)COC(=O)/C=C/c2ccc(Cl)cc2)c(=O)n(C)c1=O 89.1 µM [inhibitor, single point]
C[C@H](NC(=O)c1nc[nH]c1C(=O)N[C@@H](CCCCNC(=O)OC(C)(C)C)C(=O)OC(C)(C)C)C(=O)OCc1ccccc1 79.4 µM [inhibitor, partial curve]
COC(=O)[C@H](C)[C@@H]1C[C@@]1(C)[C@@H](NC(=O)OCc1ccccc1)c1ccccc1 39.8 µM [inhibitor, single point]
O=C1[C@H](Cc2ccccc2)NCC=CC[C@@H](c2ccc(Cl)cc2)N1Cc1ccc(Cl)cc1 50.1 µM [inhibitor, partial curve]
O=C(Nc1ccccc1)c1cccc(N2C(=O)C3C4CC(C(Br)C4Br)C3C2=O)c1 (stereo not given) 39.8 µM [inhibitor, single point]
CCCCN(C(=O)CSc1nnc(Nc2ccc(C)c(C)c2)s1)c1c(N)n(Cc2ccccc2)c(=O)[nH]c1=O 25.1 µM [inhibitor, full curve, poor fit]
CCc1ccc2c(CN(CC)Cc3nc4ccccc4c(=O)[nH]3)cc(=O)oc2c1 89.1 µM [inhibitor, single point]
Cc1nn(C)c(C)c1CN(C(=O)C1CCC(=O)N(C2CCCCCC2)C1)C(C)C (stereo not given) 2.82 µM [inhibitor, full curve, poor fit]

Potency, inactive:
Cc1cnc(C(=O)NC(C)CCc2ccccc2)cn1 (stereo not given)
O=c1[nH]c(-c2ccccc2)ncc1Oc1ccccc1
COc1ccc(S(=O)(=O)N2CCC(C(=O)NCc3cccc(OC)c3)CC2)cc1
N#CCC(=O)N/N=C/c1ccc(Sc2nc3ccccc3s2)o1
O=C(NCCc1c[nH]c2ccccc12)C(=O)Nc1ccccc1
Cc1nc2nc(-c3ccccc3)[nH]n2c(=O)c1Cc1ccccc1
NNC(=O)c1sccc1OCc1ccc(Cl)cc1Cl
Cc1cc(C)nc(-n2nc(C)cc2NC(=O)CN2CCc3ccccc3C2)n1
Cc1cc(C(=O)Cn2nc(C(=O)O)c3ccccc3c2=O)c(C)n1C1CC1
O=C(Nc1ccc2[nH]ncc2c1)c1ccccc1Cl
CN(C(=O)c1ccc(-c2ccccc2)cc1)C1CCCCC1
COc1ccc(C(=O)Nc2ccccc2N2CCN(C(=O)C(C)C)CC2)cc1Cl
CC1CN(c2nc3ccccc3nc2NS(=O)(=O)c2ccccc2)CC(C)O1 (stereo not given)
C[C@@H]1CCCCO[C@H](CN(C)C(=O)Nc2ccc3c(c2)OCO3)[C@H](C)CN([C@@H](C)CO)C(=O)c2cc(NS(=O)(=O)c3ccc(Cl)cc3)ccc2O1
CCNS(=O)(=O)c1ccc(CCC(=O)NCCC2=CCCCC2)cc1
CCNC(=O)C1CCCN(C(=O)c2ccc(C(F)(F)F)cc2)CC1 (stereo not given)
O=[N+]([O-])/C=C/c1cn(Cc2ccc(Cl)cc2)c2ccccc12
c1ccc(CN2CC[C@@H](Nc3nccn4ccnc34)C2)cc1
CC(CCN1C(Nc2ccccc2)=NC[C@@H]1Cc1ccccc1)c1ccccc1 (stereo not given in full)
C=C(C)CSC1=C(C#N)C(c2ccccc2Cl)CC(=O)N1 (stereo not given)

Activity change, negative = inhibition, inconclusive:
Cc1cccc(N2CCN(S(=O)(=O)c3cc4c(cc3Cl)NC(=O)CO4)CC2)c1C -7.67% [inhibitor]
